# Assay results reported in publication PMC5892938.
# This is one part of the list. At the low end of the ranking, values are background and their order means little.
# Target: GST-SBP-SLBP (stem-loop binding protein) (UniProt Q14493)
# Experiment: targeted RNA Bind-n-Seq;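 also: DESeq read counts versus GST-SBP nonspecific binding control pulldown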
# Settings: RBNS binding buffer: 25 mM Tris pH 7.5, 150 mM KCl, 3 mM MgCl2, 0.1% Tween, 0.5 mg/mL BSA, 1 mM DTT; 27 nM protein, 750 pM RNA pool; temperature not stated; high values mean tight binding
row,Sequence,binding signal (log2 fold change)
1,GGUCACGUCUCAAUCAACUCAUUCCCCAGGGAAACCCCUGGUUUUUUCAACAGCUCGCAGUCAAG,-0.445
2,GGUCACGUCUCAAUCAACUCUAUCCCCAGGGAAAGCCCUGGUUUUUUCAACAGCUCGCAGUCAAG,-0.149
3,GGUCACGUCUCAAUCAACUCUACUUCCAGGGAAAUCCCUGGCUAUUUCAACAGCUCGCAGUCAAG,0.082
4,GGUCACGUCUCAAUCAACUCAUCCUCCAGGGAAACCCCUGGUAUUCUCAACAGCUCGCAGUCAAG,-0.155
5,GGUCACGUCUCAAUCAACUCACACGAGGGGGGGAAAACCCCUUUACCCUCAUCAUCAACAGCUCGCAGUCAAG,0.171
6,GGUCACGUCUCAAUCAACUCUACUCCCAGGGAAAGCCCUGGUAUUCUCAACAGCUCGCAGUCAAG,-0.0814
7,GGUCACGUCUCAAUCAACUCAUUCCCCAGGGAAAGCCCUGGUUAUUUCAACAGCUCGCAGUCAAG,-0.125
8,GGUCACGUCUCAAUCAACUCUAUAGAGGGGGGGAAAACCCCUUUACCCUCACCGUCAACAGCUCGCAGUCAAG,-0.417
9,GGUCACGUCUCAAUCAACUCUAUUCCAGGAGUUUACUCCUGUAUUUUCAACAGCUCGCAGUCAAG,0.00878
10,GGUCACGUCUCAAUCAACUCAUAAGAGGGGGGGAAAACCCCUUUACCCUCAAAAUCAACAGCUCGCAGUCAAG,0.218
11,GGUCACGUCUCAAUCAACUCUACUCCCAGGGAAAACCCUGGCAAUUUCAACAGCUCGCAGUCAAG,0.282
12,GGUCACGUCUCAAUCAACUCUAUCUCCAGGGAAAUCCCUGGCUUACUCAACAGCUCGCAGUCAAG,-0.0569
13,GGUCACGUCUCAAUCAACUCUUCCUCCAGGGAAAACCCUGGUUAACUCAACAGCUCGCAGUCAAG,-0.0777
14,GGUCACGUCUCAAUCAACUCAUCGCCCAGGGAAAGCCCUGGUUAUUUCAACAGCUCGCAGUCAAG,-0.153
15,GGUCACGUCUCAAUCAACUCCUAGGAGGGGGGGAAAACCCCUUUACCCUCAAAAUCAACAGCUCGCAGUCAAG,-0.0793
16,GGUCACGUCUCAAUCAACUCUUCUUCCAGGGAAAGCCCUGGCAAAUUCAACAGCUCGCAGUCAAG,-0.0143
17,GGUCACGUCUCAAUCAACUCAUUAGAGGGGGGGAAAACCCCUUUACCCUCAACCUCAACAGCUCGCAGUCAAG,-0.32
18,GGUCACGUCUCAAUCAACUCAUCCCCAGGAGUUUCCUCCUGUUAACUCAACAGCUCGCAGUCAAG,0.118
19,GGUCACGUCUCAAUCAACUCAUUUCCCAGGGAAAUCCCUGGUUAUUUCAACAGCUCGCAGUCAAG,-0.12
20,GGUCACGUCUCAAUCAACUCUACUUCCAGGGAAAGCCCUGGUAUUUUCAACAGCUCGCAGUCAAG,0.0217
21,GGUCACGUCUCAAUCAACUCCUCGGAGGGGGGGAAAACCCCUUUACCCUCACUUUCAACAGCUCGCAGUCAAG,-0.635
22,GGUCACGUCUCAAUCAACUCUAUUCCAGGAGUUUUCUCCUGUUUUCUCAACAGCUCGCAGUCAAG,-0.0898
23,GGUCACGUCUCAAUCAACUCUUCCUCAGGAGUUUCCUCCUGUAUUCUCAACAGCUCGCAGUCAAG,0.19
24,GGUCACGUCUCAAUCAACUCUUCUUCCAGGGAAAGCCCUGGUAAUGUCAACAGCUCGCAGUCAAG,0.119
25,GGUCACGUCUCAAUCAACUCUUUCCCCAGGGAAAGCCCUGGUUAUCUCAACAGCUCGCAGUCAAG,0.143

row,Sequence,binding signal (log2 fold change)
1,GGUCACGUCUCAAUCAACUCUUUUUCCAGGGAAAGCCCUGGUAUAUUCAACAGCUCGCAGUCAAG,0.123
2,GGUCACGUCUCAAUCAACUCAUCCCCCAGGGAAAGCCCUGGUUAUCUCAACAGCUCGCAGUCAAG,-0.0687
3,GGUCACGUCUCAAUCAACUCAUCUCCAGGAGUUUCCUCCUGUUUUCUCAACAGCUCGCAGUCAAG,-0.0127
4,GGUCACGUCUCAAUCAACUCAUCUUCCAGGGAAAACCCUGGCUAUUUCAACAGCUCGCAGUCAAG,-0.193
5,GGUCACGUCUCAAUCAACUCAUCUUCAGGAGUUUUCUCCUGCUUACUCAACAGCUCGCAGUCAAG,0.0427
6,GGUCACGUCUCAAUCAACUCAAUCUCAGGAGUUUCCUCCUGCUAACUCAACAGCUCGCAGUCAAG,0.17
7,GGUCACGUCUCAAUCAACUCUAUUUCCAGGGAAACCCCUGGCAUGUUCAACAGCUCGCAGUCAAG,0.0113
8,GGUCACGUCUCAAUCAACUCAAUCUCCAGGGAAAUCCCUGGUAUUUUCAACAGCUCGCAGUCAAG,-0.0307
9,GGUCACGUCUCAAUCAACUCUUCGCCCAGGGAAAUCCCUGGUUUUCUCAACAGCUCGCAGUCAAG,0.172
10,GGUCACGUCUCAAUCAACUCUUUCCCCAGGGAAAUCCCUGGUUAUGUCAACAGCUCGCAGUCAAG,0.0174
11,GGUCACGUCUCAAUCAACUCAUCUUCCAGGGAAAGCCCUGGUAAUUUCAACAGCUCGCAGUCAAG,0.0982
12,GGUCACGUCUCAAUCAACUCAUUCUCCAGGGAAACCCCUGGUAUACUCAACAGCUCGCAGUCAAG,0.118
13,GGUCACGUCUCAAUCAACUCCUAAGAGGGGGGGAAAACCCCUUUACCCUCACAUUCAACAGCUCGCAGUCAAG,-0.497
14,GGUCACGUCUCAAUCAACUCAUCCUCAGGAGUUUACUCCUGCAUUUUCAACAGCUCGCAGUCAAG,-0.104
15,GGUCACGUCUCAAUCAACUCUUUUUCCAGGGAAAUCCCUGGCAUUCUCAACAGCUCGCAGUCAAG,-0.0501
16,GGUCACGUCUCAAUCAACUCCAAAGAGGGGGGGAAAACCCCUUUACCCUCCCAAUCAACAGCUCGCAGUCAAG,0.197
17,GGUCACGUCUCAAUCAACUCAUUCCCAGGAGUUUCCUCCUGUUUAUUCAACAGCUCGCAGUCAAG,-0.0185
18,GGUCACGUCUCAAUCAACUCAUCCUCCAGGGAAAUCCCUGGCAAAUUCAACAGCUCGCAGUCAAG,0.239
19,GGUCACGUCUCAAUCAACUCAUUUUCCAGGGAAAACCCUGGCAAUCUCAACAGCUCGCAGUCAAG,-0.019
20,GGUCACGUCUCAAUCAACUCUAUUCCCAGGGAAACCCCUGGCUAACUCAACAGCUCGCAGUCAAG,-0.145
21,GGUCACGUCUCAAUCAACUCAUUCGAGGGGGGGAAAACCCCUUUACCCUCCAUAUCAACAGCUCGCAGUCAAG,0.121
22,GGUCACGUCUCAAUCAACUCAGAAGAGGGGGGGAAAACCCCUUUGCCCUCAACAUCAACAGCUCGCAGUCAAG,-0.133
23,GGUCACGUCUCAAUCAACUCUAUCCCAGGAGUUUCCUCCUGCAUACUCAACAGCUCGCAGUCAAG,0.312
24,GGUCACGUCUCAAUCAACUCUUUCCCCAGGGAAAACCCUGGCUUACUCAACAGCUCGCAGUCAAG,0.0645
25,GGUCACGUCUCAAUCAACUCUCACGAGGGGGGGAAAACCCCUUUGCCCUCACAUUCAACAGCUCGCAGUCAAG,0.0625

row,Sequence,binding signal (log2 fold change)
1,GGUCACGUCUCAAUCAACUCAUUUCCCAGGGAAACCCCUGGCUUACUCAACAGCUCGCAGUCAAG,0.121
2,GGUCACGUCUCAAUCAACUCUUCCUCAGGAGUUUUCUCCUGUAAUUUCAACAGCUCGCAGUCAAG,-0.0363
3,GGUCACGUCUCAAUCAACUCUUUUCCAGGAGUUUCCUCCUGUUAUUUCAACAGCUCGCAGUCAAG,-0.0622
4,GGUCACGUCUCAAUCAACUCAUCUCCAGGAGUUUACUCCUGCUUUUUCAACAGCUCGCAGUCAAG,-0.0208
5,GGUCACGUCUCAAUCAACUCUAUUCCCAGGGAAAACCCUGGCAUAUUCAACAGCUCGCAGUCAAG,0.0822
6,GGUCACGUCUCAAUCAACUCUUUCGAGGGGGGGAAAACCCCUUUGCCCUCACAAUCAACAGCUCGCAGUCAAG,0.167
7,GGUCACGUCUCAAUCAACUCAUCUUCCAGGGAAAGCCCUGGCUUACUCAACAGCUCGCAGUCAAG,-0.304
8,GGUCACGUCUCAAUCAACUCUACUUCAGGAGUUUUCUCCUGCUUUCUCAACAGCUCGCAGUCAAG,0.0407
9,GGUCACGUCUCAAUCAACUCCAAAGAGGGGGGGAAAACCCCUUUACCCUCAUCUUCAACAGCUCGCAGUCAAG,0.443
10,GGUCACGUCUCAAUCAACUCGCAAGAGGGGGGGAAAACCCCUUUACCCUCACAUUCAACAGCUCGCAGUCAAG,0.184
11,GGUCACGUCUCAAUCAACUCAAGGUCAGGAGUUUCCUCCUGUUAAUUCAACAGCUCGCAGUCAAG,-0.037
12,GGUCACGUCUCAAUCAACUCAAUAGAGGGGGGGAAAACCCCUUUGCCCUCGUAAUCAACAGCUCGCAGUCAAG,0.156
13,GGUCACGUCUCAAUCAACUCAGUUCCAGGAGUUUACUCCUGCUAAUUCAACAGCUCGCAGUCAAG,-0.319
14,GGUCACGUCUCAAUCAACUCAUCCCCAGGAGUUUUCUCCUGUUUUCUCAACAGCUCGCAGUCAAG,-0.0205
15,GGUCACGUCUCAAUCAACUCAUCUUCAGGAGUUUCCUCCUGCAAACUCAACAGCUCGCAGUCAAG,-0.00471
16,GGUCACGUCUCAAUCAACUCUUUUCCAGGAGUUUACUCCUGCAUAUUCAACAGCUCGCAGUCAAG,-0.17
17,GGUCACGUCUCAAUCAACUCUACUCCCAGGGAAAUCCCUGGUAAUUUCAACAGCUCGCAGUCAAG,0.0619
18,GGUCACGUCUCAAUCAACUCCUUCGAGGGGGGGAAAACCCCUUUACCCUCACAAUCAACAGCUCGCAGUCAAG,0.304
19,GGUCACGUCUCAAUCAACUCUUCCCCCAGGGAAAACCCUGGCUUUUUCAACAGCUCGCAGUCAAG,-0.00642
20,GGUCACGUCUCAAUCAACUCUAUUUCAGGAGUUUCCUCCUGCUAAUUCAACAGCUCGCAGUCAAG,-0.1
21,GGUCACGUCUCAAUCAACUCUUUCUCAGGAGUUUUCUCCUGCUUUGUCAACAGCUCGCAGUCAAG,4.48e-05
22,GGUCACGUCUCAAUCAACUCCAUCGAGGGGGGGAAAACCCCUUUACCCUCACCAUCAACAGCUCGCAGUCAAG,-0.222
23,GGUCACGUCUCAAUCAACUCAUCUCCAGGAGUUUACUCCUGCUUUCUCAACAGCUCGCAGUCAAG,-0.221
24,GGUCACGUCUCAAUCAACUCUAUUUCAGGAGUUUCCUCCUGUUUUUUCAACAGCUCGCAGUCAAG,-0.108
